# This is one part of the list. Viral Rep nickase domains cut single-stranded DNA in vitro for 1 h at 37 °C with 3 µM enzyme; only the middle of the 90-letter strands is printed. Values are log2 of uncut reads against the no-enzyme pool; the lower, the more was cut; hits are not called. Counts are relative to all reads, so uncut sequences can rise above 0 when many others are cut.
# Key:
# Experiment in all cases: uncleaved DNA left, log2 of reads against the no-enzyme library (log2 ratio); higher = less cleavage (more negative = more Rep cleavage of the k-mer); sequences stand for … in CTCGTCCG…ACCGGAGA
# [1] = test system: T1, Rep nickase domain of Muscovy duck circovirus
# T1 sequence (residues 1-111 of Rep, tag left off): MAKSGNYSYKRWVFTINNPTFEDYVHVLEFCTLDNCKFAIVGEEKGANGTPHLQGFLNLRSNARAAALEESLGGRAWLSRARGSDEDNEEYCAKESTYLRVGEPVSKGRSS
# Experimental: (§1)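 A pool of 90-nt single-stranded DNAs with seven random bases just before the constant AC of the nick site (name = the seven bases) was cut by 3 µM recombinant His6-SUMO-tagged Rep nickase domain (300 nM DNA, 50 mM HEPES pH 8.0, 50 mM NaCl, 1 mM MnCl2, 1 h, 37 °C, three replicates). Uncut DNA was amplified and sequenced.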
# [2] = test system: T2, Rep nickase domain of banana bunchy top virus
# T2 sequence (residues 1-94 of Rep, tag left off): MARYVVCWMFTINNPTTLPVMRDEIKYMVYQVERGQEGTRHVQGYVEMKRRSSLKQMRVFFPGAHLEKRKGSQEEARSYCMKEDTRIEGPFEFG
# Experimental: as §1
# [3] = test system: T3, Rep nickase domain of cabbage leaf curl virus
# T3 sequence (residues 1-116 of Rep, tag left off): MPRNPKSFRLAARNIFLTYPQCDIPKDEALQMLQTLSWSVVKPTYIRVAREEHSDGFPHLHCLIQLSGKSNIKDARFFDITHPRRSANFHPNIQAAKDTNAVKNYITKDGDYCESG
# Experimental: as §1
# [4] = test system: T4, Rep nickase domain of chickpea chlorotic dwarf virus
# T4 sequence (residues 1-124 of Rep, tag left off): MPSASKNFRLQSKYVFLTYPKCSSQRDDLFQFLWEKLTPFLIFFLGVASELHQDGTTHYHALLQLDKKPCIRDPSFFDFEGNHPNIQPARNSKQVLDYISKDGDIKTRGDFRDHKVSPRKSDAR
# Experimental: as §1
# [5] = test system: T5, Rep nickase domain of faba bean necrotic yellows virus
# T5 sequence (residues 1-98 of Rep, tag left off): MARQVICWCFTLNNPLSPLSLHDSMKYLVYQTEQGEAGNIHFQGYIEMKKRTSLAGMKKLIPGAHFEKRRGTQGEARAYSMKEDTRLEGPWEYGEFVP
# Experimental: as §1
# [6] = test system: T6, Rep nickase domain of maize striate mosaic virus
# T6 sequence (residues 1-117 of Rep, tag left off): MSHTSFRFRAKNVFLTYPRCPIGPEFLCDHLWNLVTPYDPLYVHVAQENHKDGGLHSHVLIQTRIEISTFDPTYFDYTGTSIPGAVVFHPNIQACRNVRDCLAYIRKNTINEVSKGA
# Experimental: as §1
# [7] = test system: T7, Rep nickase domain of porcine circovirus 2
# T7 sequence (residues 2-116 of Rep, tag left off): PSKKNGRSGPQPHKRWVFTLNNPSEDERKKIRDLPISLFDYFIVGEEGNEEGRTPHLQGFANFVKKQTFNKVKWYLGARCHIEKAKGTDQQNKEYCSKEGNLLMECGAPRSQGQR
# Experimental: as §1
# [8] = test system: T8, Rep nickase domain of tomato golden mosaic virus
# T8 sequence (residues 1-124 of Rep, tag left off): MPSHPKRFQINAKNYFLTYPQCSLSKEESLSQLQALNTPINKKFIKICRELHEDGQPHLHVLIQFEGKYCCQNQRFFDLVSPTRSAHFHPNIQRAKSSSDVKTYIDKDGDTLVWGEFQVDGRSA
# Experimental: as §1
# [9] = test system: T9, Rep nickase domain of tomato yellow leaf curl virus
# T9 sequence (residues 1-136 of Rep, tag left off): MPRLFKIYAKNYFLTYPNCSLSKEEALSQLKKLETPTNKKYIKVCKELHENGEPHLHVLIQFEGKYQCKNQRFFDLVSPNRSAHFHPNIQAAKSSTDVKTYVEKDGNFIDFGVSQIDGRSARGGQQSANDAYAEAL
# Experimental: as §1
# [10] = test system: T10, Rep nickase domain of wheat dwarf virus
# T10 sequence (residues 1-137 of Rep, tag left off): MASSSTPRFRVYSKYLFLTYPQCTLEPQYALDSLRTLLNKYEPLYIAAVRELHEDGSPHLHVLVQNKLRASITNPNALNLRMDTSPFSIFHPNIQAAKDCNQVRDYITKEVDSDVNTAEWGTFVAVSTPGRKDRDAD
# Experimental: as §1
Sequence,uncleaved DNA left (log2) [1],uncleaved DNA left (log2) [2],uncleaved DNA left (log2) [3],uncleaved DNA left (log2) [4],uncleaved DNA left (log2) [5],uncleaved DNA left (log2) [6],uncleaved DNA left (log2) [7],uncleaved DNA left (log2) [8],uncleaved DNA left (log2) [9],uncleaved DNA left (log2) [10]
CCGCTAT,0.02,0.023,-0.0366,-0.693,-0.0424,-0.404,-0.0844,-0.111,0.0565,0.202
GTAGCAT,-0.00903,-0.0233,0.202,0.811,-0.0852,1.84,0.0556,0.0544,0.0424,-0.0418
TACCCTC,-0.0714,-0.0869,0.012,-1.44,-0.0099,-0.25,-0.97,-0.0776,-0.0861,-0.111
AGGCCCG,0.0948,0.0564,0.58,1.19,0.0915,0.557,0.0697,0.00731,-0.0505,0.128
ACGTGCT,-0.369,-0.0678,-0.595,-0.987,0.013,-0.981,-2.98,0.0368,0.0916,-0.12
ATTAGTA,-0.0174,-0.0674,-0.152,-1.34,0.0155,-0.747,-0.254,0.107,0.00837,-0.0454
ATAGTTG,-0.0131,0.0358,-0.211,-0.0216,-0.0752,-0.612,0.0728,0.0895,-0.0769,-0.0853
TATAGTC,0.0205,-0.0562,0.0292,-0.563,-0.172,-0.929,0.0274,-0.101,-0.124,0.00589
CTTCCAC,0.213,-0.0899,-0.0383,-0.523,0.0401,-0.675,-0.0914,-0.0578,0.0276,0.0702
CAGACGC,0.0104,0.0229,0.0268,-0.0207,0.00767,-0.719,0.136,-0.0785,0.0818,-0.0209
CACAAAA,-0.00955,0.016,0.022,-0.464,0.0386,-0.656,0.0385,0.0815,-0.0602,-0.00645
ACCCTGC,-0.0312,-0.233,-0.688,-0.59,-0.0952,-1.05,-0.0733,-0.0729,-0.132,-0.28
GGGCCCG,-0.00443,0.00786,0.639,1.26,-0.0208,1.47,0.0932,-0.0689,-0.0894,0.067
CTTAGTA,-0.0873,0.0126,-0.195,-1.25,-0.0812,-0.826,-0.271,-0.171,-0.081,-0.127
GGAGACC,0.141,0.134,0.87,1.99,0.0375,2.11,0.298,0.109,0.143,0.162
GTCTTAG,-0.163,0.0619,0.141,0.613,-0.0833,1.23,-0.0878,0.0569,-0.0429,0.0354
CCCAAGC,-0.105,0.126,0.16,0.632,0.166,0.0762,0.166,0.00667,-0.0959,0.127
CAAGCAT,0.0627,-0.0104,-0.134,-0.617,-0.0469,-0.194,0.0624,-0.041,-0.0683,0.0854
CAGCGGG,0.208,0.0874,-0.134,-0.152,-0.0135,-0.331,0.15,0.195,-0.035,-0.0473
TGTTTAT,-0.381,0.0133,0.36,0.338,0.0545,0.999,-0.471,0.167,0.125,0.119
CTAGCTA,-0.0809,-0.0137,-0.0371,-0.743,-0.182,-0.475,-0.112,-0.00467,-0.0505,-0.0703
GACACTG,0.082,0.0758,0.0319,0.599,-0.0437,0.924,0.1,-0.0216,0.0249,0.0799
TCTCCGC,0.151,0.0573,-0.0602,-0.106,0.091,-0.347,0.0919,0.0423,0.00114,0.0723
ATCGAGG,0.0754,0.0257,0.298,1.13,0.102,0.911,0.125,0.133,-0.111,0.0378
CCAACAC,-0.0962,-0.135,-0.205,-1.59,0.0216,-0.834,0.0707,-0.118,-0.179,-0.0418
CGGAACC,-0.105,-0.102,0.157,0.322,0.00825,0.447,-0.305,-0.13,-0.149,0.0275
CGGCTAG,0.174,0.211,0.155,0.578,0.0702,0.897,0.391,0.187,0.19,0.108
ATGCCCC,-0.0523,-0.0856,0.113,0.18,-0.0433,-0.178,-0.341,-0.216,-0.0846,0.053
GTGGATC,0.122,0.129,0.569,1.28,0.101,2,0.169,0.0186,0.132,0.144
TGGCGTC,-0.0818,-0.0487,-0.248,-0.45,-0.137,-0.676,0.0799,-0.149,-0.0948,-0.0846
